Results on two substances are retold here after paper PMC6783653.

The chains behind the UniProt entries cited, without tags or fusion partners.
UniProt P13383: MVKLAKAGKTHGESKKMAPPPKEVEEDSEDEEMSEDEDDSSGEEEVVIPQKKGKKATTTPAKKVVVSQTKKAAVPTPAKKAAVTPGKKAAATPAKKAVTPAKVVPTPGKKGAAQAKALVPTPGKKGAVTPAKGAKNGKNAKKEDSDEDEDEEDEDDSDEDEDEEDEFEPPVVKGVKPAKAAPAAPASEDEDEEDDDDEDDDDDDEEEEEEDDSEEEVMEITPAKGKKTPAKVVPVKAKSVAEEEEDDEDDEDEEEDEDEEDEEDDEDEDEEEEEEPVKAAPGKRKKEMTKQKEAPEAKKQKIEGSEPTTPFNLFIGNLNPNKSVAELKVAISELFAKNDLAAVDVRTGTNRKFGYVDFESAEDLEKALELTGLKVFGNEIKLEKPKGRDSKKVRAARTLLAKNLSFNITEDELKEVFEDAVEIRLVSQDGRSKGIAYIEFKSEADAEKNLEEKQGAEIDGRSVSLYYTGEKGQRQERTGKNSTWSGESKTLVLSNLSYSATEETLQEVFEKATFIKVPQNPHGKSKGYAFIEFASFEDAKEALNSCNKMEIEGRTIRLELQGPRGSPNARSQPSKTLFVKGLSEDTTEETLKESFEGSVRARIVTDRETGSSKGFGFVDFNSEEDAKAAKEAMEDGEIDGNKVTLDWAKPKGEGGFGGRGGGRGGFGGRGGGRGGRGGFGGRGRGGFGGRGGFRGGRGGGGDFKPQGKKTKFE
UniProt P62630: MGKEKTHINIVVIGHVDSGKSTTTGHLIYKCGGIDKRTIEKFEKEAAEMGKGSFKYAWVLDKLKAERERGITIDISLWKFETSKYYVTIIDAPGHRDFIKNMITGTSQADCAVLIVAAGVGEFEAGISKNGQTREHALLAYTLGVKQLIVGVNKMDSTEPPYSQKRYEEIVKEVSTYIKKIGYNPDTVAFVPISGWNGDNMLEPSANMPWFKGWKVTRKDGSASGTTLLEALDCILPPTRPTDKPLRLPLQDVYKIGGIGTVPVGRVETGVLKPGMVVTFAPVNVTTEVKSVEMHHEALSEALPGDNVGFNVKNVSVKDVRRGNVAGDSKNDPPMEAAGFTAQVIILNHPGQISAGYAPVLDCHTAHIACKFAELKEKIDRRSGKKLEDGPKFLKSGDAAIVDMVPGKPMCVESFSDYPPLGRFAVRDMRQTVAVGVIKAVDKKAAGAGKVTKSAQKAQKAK

No constants are given. Whether binding was seen depends on the method and setting. Binding seen in cells or lysates may run through a third protein. Some results given as binding are weak or reduced against the parent protein; the word gives no strength. Where a sequence is shown, tags or fusion partners need not be part of it.

Holding throughout (assay): pull-down; GST-TIP30 fragments of different length on glutathione agarose beads, Myc-tagged binding partners, 2 h at 4°C, washed with PBS, Western blot; no purification of the Myc-tagged partners is described; only the target purified
(A western blot detects proteins with antibodies after separation by electrophoresis.)

For assay [1], the target named is T1, GST-TIP30 fragment, first N-terminal 230 amino acids (rat) (UniProt B0BNF8).
T1 sequence: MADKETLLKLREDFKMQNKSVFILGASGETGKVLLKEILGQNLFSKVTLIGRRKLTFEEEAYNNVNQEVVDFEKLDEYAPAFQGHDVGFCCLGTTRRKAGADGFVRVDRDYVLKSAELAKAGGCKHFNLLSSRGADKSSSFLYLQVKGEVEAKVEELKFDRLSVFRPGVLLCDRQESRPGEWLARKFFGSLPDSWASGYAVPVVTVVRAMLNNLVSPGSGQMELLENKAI

Assay [2] deals with T2, GST-TIP30 (full-length TIP30, GST fusion, bacterial) (rat) (UniProt B0BNF8).
T2 sequence: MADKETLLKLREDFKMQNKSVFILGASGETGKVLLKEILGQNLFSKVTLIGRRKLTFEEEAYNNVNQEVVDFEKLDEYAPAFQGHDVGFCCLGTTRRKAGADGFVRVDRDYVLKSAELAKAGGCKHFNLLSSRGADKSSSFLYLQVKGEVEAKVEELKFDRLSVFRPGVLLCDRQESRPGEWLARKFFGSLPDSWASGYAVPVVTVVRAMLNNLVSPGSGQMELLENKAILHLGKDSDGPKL

In assay [3] the target is T3, GST-TIP30 fragment, first 50 amino acids (rat) (UniProt B0BNF8).
T3 sequence: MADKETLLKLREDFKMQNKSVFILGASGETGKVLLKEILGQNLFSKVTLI

“Myc-tagged nucleolin (from UniProt P13383 1-713)”: the binding entry in assay [1] and in assay [2] was “binds” throughout.

As to “Myc-tagged eEF1A1 used in the GST-TIP30 fragment pull-down (from UniProt P62630 1-462)”, the binding entry in assay [3] and in assay [2] was “binds” in each case.
